{"source": "PubChem BioAssay AID624296", "about": "(National Center for Advancing Translational Sciences (NCATS), 2012)", "note": "In all, about 350,000 compounds went through this assay and about 9,900 (2.8%) were called active. The shares of active, inactive and inconclusive entries below differ from those in the screen. The call rests on the fitted dose curve; in most records, active means well fitted activation curve with a large enough effect; inconclusive means small, poorly fitted or top-dose-only effect; inactive means no such curve, though single readings can be large or run the other way. No potency is given beside an inconclusive call; the fits are too rough. Potency means the concentration at half of the fitted maximal effect; tags describe the fitted curve by direction and shape."}
{"test": "A quantitative high throughput screen for small molecules that induce DNA re-replication in MCF 10a normal breast cells; further: nearly all actives have a fitted effect of over 50% in size; on activity, positive = re-replication: % of control where 0% means no effect.", "settings": "MCF 10A DNA re-replication, Hoechst nuclear intensity, 48 h; activity, positive = re-replication: at 46.1 µM (top of the series)"}
{"smiles": "COc1ccc(Cl)cc1N1C(=NC(=O)C2CCCO2)SC2CS(=O)(=O)CC21", "note": "(stereo not given)", "activity, positive = re-replication": "inactive: -1.9%"}
{"smiles": "C#CCN1C(=O)C(O)(CC(=O)/C=C/C=C/c2ccccc2)c2ccccc21", "note": "(stereo not given)", "Potency": "inconclusive [activator, single point]"}
{"smiles": "Cc1ccc(S(=O)(=O)CC(=O)N2CCCC2)cc1", "activity, positive = re-replication": "inactive: 2.1%"}
{"smiles": "O=C(NCc1ccc2c(c1)OCO2)C1CCN(S(=O)(=O)N2CCCCC2)CC1", "activity, positive = re-replication": "inactive: -1.14%"}
{"smiles": "CC1CCCCN1S(=O)(=O)c1ccc(S(=O)(=O)N(Cc2ccccc2)Cc2ccco2)cc1", "note": "(stereo not given)", "Potency": "inconclusive [activator, single point]"}
{"smiles": "N#Cc1c(NC2CCCCC2)nc(-c2ccco2)c2c1CCCC2", "Potency": "active: 16.4 µM"}
{"smiles": "COCCCNC(=O)C1CCC(CNS(=O)(=O)c2ccc3c(c2)N(C(C)=O)CCO3)CC1", "note": "(stereo not given)", "activity, positive = re-replication": "inactive: 7.96%"}
{"smiles": "CC(C)C[C@H](NC(=O)OCC1c2ccccc2-c2ccccc21)C(=O)O", "activity, positive = re-replication": "inactive: -3.95%"}
{"smiles": "Cc1ccc(NC(=O)C(=O)NCC2OCCc3ccccc32)cc1", "note": "(stereo not given)", "Potency": "inconclusive [activator, partial curve, poor fit]"}
{"smiles": "Cc1ccc(C(C(=O)Nc2ccc3c(c2)OCO3)N(C)C(=O)Cc2c[nH]c3ccccc23)cc1", "note": "(stereo not given)", "Potency": "inconclusive [activator, partial curve, poor fit]"}
{"smiles": "CN(CC(=O)Nc1ccccc1Cl)C(=O)c1cc(-c2cccs2)nn1-c1ccccc1", "Potency": "inconclusive [activator, single point]"}
{"smiles": "CC(C)C[C@@H]1NC(=O)N(CCCn2ccnc2)C1=O", "activity, positive = re-replication": "inactive: -0.156%"}
{"smiles": "CC(=O)Nc1cccc(Oc2nc(-c3ccccn3)nc3ccccc23)c1", "Potency": "inconclusive [activator, single point]"}
{"smiles": "C=CCC(Nc1ccco1)c1ccccc1", "note": "(stereo not given)", "activity, positive = re-replication": "inactive: -1.19%"}
{"smiles": "O=C(Nc1ccccc1)C1=C[C@H](c2csc3ccccc23)C[C@H](OCc2ccc(CO)cc2)O1", "Potency": "inconclusive [activator, single point]"}
{"smiles": "O=C(CSc1nnc(-c2cccnc2)n1Cc1ccco1)Nc1nc(-c2ccc(F)cc2)cs1", "Potency": "inconclusive [activator, partial curve, poor fit]"}
{"smiles": "FC(F)Sc1ccc(NC(=S)NCc2ccccc2)cc1", "Potency": "inconclusive [activator, single point]"}
{"smiles": "COc1ccc(C(C#N)c2nc3ccccc3nc2Cl)cc1", "note": "(stereo not given)", "Potency": "inconclusive [activator, single point]"}
{"smiles": "Cc1cc(C)cc(OCC(=O)Nc2ccccc2N2CCCCC2)c1", "Potency": "active: 8.2 µM"}
{"smiles": "O=C(CN1C(=O)NC2(CCCC2)C1=O)Nc1ccccc1N1CCCCC1", "activity, positive = re-replication": "inactive: -1.09%"}
{"smiles": "O=C(Cc1cccs1)N/N=C\\c1ccc([N+](=O)[O-])s1", "Potency": "inconclusive [activator, single point]"}
{"smiles": "CN(CC(=O)Nc1ccc(Cl)cc1)C(=O)c1ccc(S(=O)(=O)Nc2ccccc2)cc1", "Potency": "inconclusive [activator, single point]"}
{"smiles": "CSCC[C@H](NC(=O)c1ccc2c(c1)OCO2)c1nnc2ccccn12", "activity, positive = re-replication": "inactive: 1.73%"}
{"smiles": "COc1cc(C(=O)Nc2ccc(S(=O)(=O)N3CCCCC3C)cc2)cc(OC)c1OC", "note": "(stereo not given)", "activity, positive = re-replication": "inactive: 17.3%"}
{"smiles": "O=C(NCc1ccc2c(c1)OCO2)C(=O)NCC(c1ccco1)N1CCN(c2ccccc2)CC1", "note": "(stereo not given)", "Potency": "inconclusive [activator, partial curve]"}
{"smiles": "CC1C(=O)C(C)C(c2ccc(Br)cc2)NC1c1ccc(Br)cc1", "note": "(stereo not given)", "Potency": "active: 23.1 µM"}
{"smiles": "COc1ccc(-c2nnc3sc(CN4C(=O)c5ccccc5C4=O)nn23)cc1", "Potency": "inconclusive [activator, single point]"}
{"smiles": "COCCn1c(COc2ccc(OC)cc2)nc2ccccc21", "activity, positive = re-replication": "inactive: -0.633%"}
{"smiles": "Cn1c(SCC(=O)c2ccccc2)nnc1C1CC1", "Potency": "inconclusive [activator, single point]"}
{"smiles": "CCC(=O)Oc1ccc(C/C(=N\\O)c2ccc(O)cc2O)o1", "Potency": "active: 14.6 µM"}
{"smiles": "CCn1c(=O)c(C(=O)Nc2ccccc2F)c(O)c2ccccc21", "Potency": "inconclusive [activator, single point]"}
{"smiles": "O=C(Cc1n[nH]c(=O)c2ccccc12)N/N=C/c1cc2c(cc1Cl)OCO2", "Potency": "active: 18.4 µM"}
{"smiles": "COc1cccc(OCC(=O)Nc2cc(Cl)ccc2Oc2ccccc2)c1", "Potency": "inconclusive [activator, partial curve, poor fit]"}
{"smiles": "c1ccc(N2CCN(c3cnc4ccccc4n3)CC2)cc1", "Potency": "inconclusive [activator, single point]"}
{"smiles": "CCCC(=O)N1CCN(Cc2nc3cc([N+](=O)[O-])ccc3n2C)CC1", "activity, positive = re-replication": "inactive: 6.04%"}
{"smiles": "O=C(NC(=S)NCc1ccccc1)c1ccc(Br)cc1", "Potency": "inconclusive [activator, single point]"}
{"smiles": "NNc1cccc(C=Cc2ccccc2)cc1=O", "Potency": "inconclusive [activator, single point]"}
{"smiles": "O=C(COc1cccnc1[N+](=O)[O-])c1c[nH]c2ccccc12", "Potency": "inconclusive [activator, single point]"}
{"smiles": "COc1ccc(OC)c(/C=N/NC(=O)c2cc3c(OC)cc(OC)cc3[nH]2)c1", "Potency": "inconclusive [activator, partial curve, poor fit]"}
{"smiles": "CCOC(=O)C1=NNC(C(=O)c2ccc(OC)cc2)C1c1ccccc1", "note": "(stereo not given)", "activity, positive = re-replication": "inactive: 10.3%"}
{"smiles": "CN(C)C(=O)CCc1ccc2c3c([nH]c2c1)[C@]1(C)[C@@H](C(=O)N2CCCCC2)C[C@H](CC(=O)NCCc2ccccn2)C(=O)N1CC3", "Potency": "inconclusive [activator, single point]"}
{"smiles": "O=C(CCc1c[nH]c2ccccc12)OCc1ccc(Br)cc1", "Potency": "inconclusive [activator, partial curve, poor fit]"}
{"smiles": "COc1ccc(/C=C2\\SC(=S)N(CCC(=O)NC3C=CS(=O)(=O)C3)C2=O)cc1", "note": "(stereo not given)", "Potency": "inconclusive [activator, partial curve, poor fit]"}
{"smiles": "COC(=O)c1ccc(NCc2c(O)ccc(O)c2Br)cc1Cl", "Potency": "inconclusive [activator, single point]"}
{"smiles": "c1ccc2cc(Sc3ncnc4c3oc3ccccc34)ccc2c1", "Potency": "inconclusive [activator, partial curve, poor fit]"}
{"smiles": "CN(Cc1ccccc1)C(=O)c1nc2ccccn2c1CN1CCC(N2CCOCC2)CC1", "activity, positive = re-replication": "inactive: -14.5%"}
{"smiles": "CC(c1ccccc1)N1C(=O)/C(=C/c2ccncc2)SC1=S", "note": "(stereo not given)", "Potency": "active: 16.4 µM"}
{"smiles": "CC(C)Cn1c(N)c(C(=O)CSc2ncccn2)c(=O)n(C)c1=O", "activity, positive = re-replication": "inactive: 5.14%"}
{"smiles": "CCc1ccc(NC(=S)N2CCC(NC(=O)c3ccccc3)CC2)cc1", "Potency": "active: 18.4 µM"}
{"smiles": "Cc1nc(Nc2nc(CSc3nc4ccccc4[nH]3)cc(=O)[nH]2)nc2ccccc12", "Potency": "active: 11.6 µM"}
{"smiles": "Cc1ccc(N2C(=O)[C@@H]3[C@H](C2=O)[C@H]2C=C(C(=O)c4ccccc4)C=CN2[C@@H]3C(=O)c2ccc(Cl)cc2)cc1", "Potency": "inconclusive [activator, full curve, poor fit]"}
{"smiles": "S=C(NCc1cccc(Cl)c1)NC1CCCCC1", "Potency": "inconclusive [activator, single point]"}
{"smiles": "CCCN=C1CC(C)(C)CC(=O)/C1=C(/O)CCC", "Potency": "inconclusive [activator, single point]"}
{"smiles": "CCCCn1c(CN2CCN(c3ccccc3)CC2)nc2c1c(=O)n(C)c(=O)n2C", "activity, positive = re-replication": "inactive: 3.48%"}
{"smiles": "CCn1c(CSc2nc(C)cc(C)n2)nnc1SCC(=O)Nc1cccc2ccccc12", "activity, positive = re-replication": "inactive: -4.71%"}
{"smiles": "Cc1ccccc1Nc1nc(N)nc(COC(=O)CCC(=O)c2ccc(F)cc2)n1", "activity, positive = re-replication": "inactive: -1.07%"}
{"smiles": "COc1ccc(S(=O)(=O)N2CCCCCC2)cc1NC(=O)c1ccccc1", "Potency": "inconclusive [activator, partial curve, poor fit]"}
{"smiles": "O=C(c1cccnc1)N1CCCC(Nc2ccc(F)cc2)C1", "note": "(stereo not given)", "activity, positive = re-replication": "inactive: -0.551%"}
{"smiles": "O=C(O)C1CCN(C(=O)c2ccc3c(c2)OCO3)CC1", "activity, positive = re-replication": "inactive: -3.2%"}
{"smiles": "CCN1CCN(c2ccc(NC(=O)c3cc4ccccc4cc3OC)cc2C)CC1", "Potency": "inconclusive [activator, partial curve, poor fit]"}
{"smiles": "O=C(Nc1nc(-c2cc3ccccc3o2)cs1)c1ccc(S(=O)(=O)N2CCCC2)cc1", "Potency": "inconclusive [activator, partial curve, poor fit]"}
{"smiles": "COC(=O)C1=C(C)NC(C)=C(C(=O)OC)C1c1ccc(-c2cc(Cl)ccc2Cl)o1", "Potency": "inconclusive [activator, single point]"}
{"smiles": "CN1CCN(c2ccc(-c3cccc(NC(=O)COc4ccc(Cl)cc4)c3)nn2)CC1", "Potency": "inconclusive [activator, partial curve, poor fit]"}
{"smiles": "Cc1ccc(Sc2c(C(=O)Nc3ccc(F)cc3F)c(C(F)(F)F)nn2C)cc1", "activity, positive = re-replication": "inactive: 7.58%"}
{"smiles": "CCCn1c(/C=C/c2ccco2)nc2ccccc21", "Potency": "inconclusive [activator, single point]"}
{"smiles": "CCC1(c2ccccc2)NC(=O)N(CC(=O)N2CCc3ccccc32)C1=O", "note": "(stereo not given)", "activity, positive = re-replication": "inactive: 3%"}
{"smiles": "O=C(Cc1c(F)cccc1Cl)Nc1ccccc1N1CCCCC1", "Potency": "inconclusive [activator, partial curve, poor fit]"}
{"smiles": "CCCCC(=O)N1CCN(c2nc(-c3ccc(F)cc3)cs2)CC1", "Potency": "inconclusive [activator, single point]"}
{"smiles": "O=C1NN(c2ccccc2)C(=O)/C1=C\\c1ccccc1OCC(=O)N1CCOCC1", "Potency": "inconclusive [activator, single point]"}
{"smiles": "O=C(Nc1ccc2oc(Cc3ccc(Cl)cc3)nc2c1)c1cccnc1", "Potency": "inconclusive [activator, partial curve, poor fit]"}
